Among all 52,000 compounds or so, about 1,700 (3.3%) were called active. Rule as the data show it: active = survival mostly below about 52% (no sharp cut-off); inactive = mostly above about 56%. The list shows a part of the results.

These results are taken from PubChem BioAssay AID463173 (ICCB-Longwood Screening Facility, Harvard Medical School, 2010).

The test system of the test is Wild type. Put plainly: growth inhibition of S. aureus wild type versus tarO mutant, primary screen, teichoic acid synthesis inhibitors, RN4220, OD600 (AID 463173). The following applies: S. aureus RN4220 wild type/DeltatarO growth, OD600, 18 h, hits give low values, screened at 18.75 µg/mL (by protocol).
On to `O=S(=O)(NCC(c1ccco1)N1CCOCC1)c1ccc(F)cc1` (stereo not given), for which the survival was inactive: 84%. Regarding `Cc1cc(C)c2oc(C(=O)Nc3c(C(=O)c4ccccc4)oc4ccccc34)cc(=O)c2c1`, the survival is inactive: 88%. The same measure for `CC1=C(C(N)=O)C(c2ccccc2F)n2nc(-c3ccc(Cl)cc3)nc2N1` (stereo not given): inactive: 94%.

As for `COC(=O)c1cc(S(=O)(=O)N2CCN(c3cc(Cl)ccc3C)CC2)c[nH]1`, the survival was active: 8%. The figure for `COc1cc2c(=O)c(C(=O)c3ccc(F)cc3)cn(Cc3cccc(F)c3)c2cc1OC` is inactive: 88%. The same measure for `Cc1ccc(C(=O)NCCC(C)C)cc1NC(=O)c1nsc2ccccc12`: inactive: 69%; for `CCN(CC)c1ccc(NC(=O)Cn2c3ncccc3c(=O)n2-c2ccccc2)c(C)c1`: inactive: 68%; for `COc1ccccc1CNc1ncnc2c1c(-c1ccccc1)cn2-c1ccc(Br)cc1`: inactive: 71%. The figure for `Cc1ccc2c(c1)-c1c(cnn1CC(=O)N1CCN(c3cc(C)ccc3C)CC1)CO2` is inactive: 64%; for `Cc1ccccc1S(=O)(=O)Cc1ccc(C(=O)NCCc2ccccc2)o1` it is inactive: 91%; for `CCOc1ccc(-c2nnc(N(C(=O)C3CCC3)C(C)C)s2)cc1` it is inactive: 106%. Turning to `Cc1ccccc1CNC(=O)C(=O)NCC(c1ccc2c(c1)OCO2)N1CCOCC1` (stereo not given), the survival is inactive: 68%. The figure for `CCC1CCCCN1C1CC(=O)N(c2ccc(NC(C)=O)cc2)C1=O` (stereo not given) is inactive: 100%; for `CN(CCCNC(=O)Cn1ncc2c([nH]c3ccccc32)c1=O)Cc1ccccc1` it is inactive: 73%; for `CC1CCN(c2csc3ccc(F)cc3c2=O)CC1` it is inactive: 126%. For the compound `Cc1n[nH]c(C)c1Cc1ccc(N)cc1`, the survival was inactive: 112%.

As to `O=C(NCc1ccc(Cl)cc1)c1ccc(CNS(=O)(=O)c2ccc(F)cc2)cc1`, the survival is inactive: 75%. The figure for `CC(C)N1CCc2c(sc(NC(=O)c3ccc(S(=O)(=O)N(C)C4CCCCC4)cc3)c2C(N)=O)C1` is inactive: 88%; for `COCCc1nn2c(=O)cc(COC(=O)c3ccco3)nc2s1` it is inactive: 76%. The figure for `O=C(Nc1ccccc1)C1CC(=O)N(c2ccccc2)C1` (stereo not given) is inactive: 105%; for `CC(=O)c1ccc(NC(=O)c2cc(S(=O)(=O)N3CCOCC3)ccc2C)cc1` it is inactive: 67%; for `O=C(CCN1CCCCC1)Nc1ccccc1` it is inactive: 110%. Consider `CCC(Sc1nc2cc(OC)c(OC)cc2c(=O)n1Cc1ccc(OC)cc1)C(=O)NCCOC` (stereo not given), for which the survival was inactive: 69%. The figure for `Cc1cc(N2CCN(c3ccccc3)CC2)n2cnnc2n1` is inactive: 92%; for `COc1ccc(CCNC(=O)c2ccc(Cn3c(=O)c4ccccc4n(Cc4ccc(F)cc4Cl)c3=O)cc2)cc1OC` it is inactive: 91%. The same measure for `c1ccc2c(NCC3CCCO3)nc(N3CCCCC3)nc2c1` (stereo not given): inactive: 106%. Regarding `CC(C)(C)c1ccc(C(=O)Nc2ccc(OCc3cc(=O)n4ccsc4n3)cc2)cc1`, the survival was inactive: 90%. The same measure for `CCN1CCN(C(=O)c2ccc3c(c2)N(Cc2ccccc2)C(=O)c2ccccc2S3(=O)=O)CC1`: inactive: 112%. The same measure for `CCCN1CCN(CCCNC(=O)c2ccc3c(c2)sc2nc(-c4ccc(OCC)cc4)cn23)CC1`: inactive: 36%; for `Cc1ccc(CN(CC(=O)NC2CCCC2)C(=O)CSc2nnc(COc3ccccc3)o2)cc1`: inactive: 112%. The same measure for `CCOc1ccc(-c2cn3c(n2)sc2cc(C(=O)N4CCCC(C)C4)ccc23)cc1` (stereo not given): inactive: 60%; for `Cc1nc(-c2ccc(F)cc2)sc1CCNC(=O)c1ccc(OC(C)C)cc1`: inactive: 74%. `Cc1cc(C)cc(OCC(=O)N(Cc2ccc(Cl)cc2)C2CCS(=O)(=O)C2)c1` (stereo not given): the survival was inactive: 92%. As to `Cc1nc(N2CCOCC2)c2c(C(=O)N(C)c3ccccc3)c(C)oc2n1`, the survival is inactive: 75%. Turning to `CC(C)Cc1nn2c(=O)cc(COC(=O)c3cccc(NS(C)(=O)=O)c3)nc2s1`, the survival is inactive: 105%. With `COc1cc(CSc2ncc(CO)n2Cc2ccc(C)cc2)cc(OC)c1`, the survival is inactive: 76%. The same measure for `COc1ccc(NC(=O)c2ccccc2C(=O)N2CCCCC2)cc1`: inactive: 109%; for `Cc1ccc(CNC(=O)CN2CCC(n3nnc4cc(C)ccc43)CC2)cc1`: inactive: 102%.

Turning to `CC(C)c1ccc2nc(SCC(=O)NC(C)(C)C)c(C#N)cc2c1`, the survival is inactive: 113%. The figure for `c1ccc(CN(Cc2cccs2)C(c2cccs2)c2nnnn2C2CCCC2)cc1` (stereo not given) is inactive: 116%. Regarding `COc1ccc(CNC(=O)CCCN2C(=O)CCn3nc(-c4cn(C)c5ccccc45)cc32)cc1`, the survival was inactive: 85%.

`Cc1c(Cl)cccc1NC(=O)CSc1nc(=O)[nH]c2c1CCCC2`: the survival is inactive: 54%. Consider `O=C(NCCc1ccc(Cl)cc1)C1(c2cccs2)CCOCC1`, for which the survival is inactive: 72%.

Regarding `Cc1ccc(-n2c(=O)c3cccnc3n2CC(=O)Nc2ccc(C)cc2Cl)cc1`, the survival is inactive: 113%.

For `O=C(NCCC1=CCCCC1)C1CCN(C(=O)N2CCOc3ccccc32)CC1`, the survival is inactive: 86%.

With `COc1ccc(OC)c(NC(=O)Cn2ncc3c2-c2ccccc2OC3)c1`, the survival was inactive: 74%. Turning to `Cc1cccc(-c2nc(CS(=O)CC(=O)NCc3ccc(Cl)cc3)c(C)o2)c1` (stereo not given), the survival was inactive: 84%. The same measure for `O=C1CN(C(=O)c2ccc(S(=O)(=O)N3CCCCC3)cc2)C(c2ccc(F)cc2)c2cc(Cl)ccc2N1` (stereo not given): inactive: 86%; for `O=C(NCCc1ccccc1)c1ccc(CSc2nc3cccnc3n2Cc2ccccc2F)cc1`: inactive: 81%.

Consider `COc1ccc(C2=C(C)C(=O)N(Cc3ccc(C(=O)Nc4ccc(F)cc4C)cc3)S2(=O)=O)cc1`, for which the survival was inactive: 55%.

In the case of `CCN(CC)CCn1c(=N)n(CCOc2ccccc2Cl)c2ccccc21`, the survival is inactive: 69%. As to `CCOC(=O)c1cc(-c2ccccc2)n(CC(=O)NCc2ccc(C)cc2)c1C`, the survival was inactive: 32%.

`COc1cccc(-c2cn3c(n2)sc2cc(C(=O)NCc4ccccc4F)ccc23)c1`: the survival was inactive: 63%.

On to `O=C(NCC(c1cccnc1)N1CCOCC1)C(=O)Nc1ccc(Cl)cc1` (stereo not given), for which the survival is inactive: 84%. On to `COc1ccc(-c2[nH]ncc2C(=O)NCc2cccc(Cl)c2)cc1`, for which the survival is inactive: 66%. The same measure for `CCOC(=O)c1c(C)oc2nc(C)nc(NCC3CCN(Cc4ccccc4C)CC3)c12`: inactive: 93%. The figure for `Cc1ccc2nc(-c3cccc(NC(=O)c4cccc5c(Cl)cccc45)c3)oc2c1` is inactive: 108%; for `CCc1ccccc1NC(=O)c1nc(-c2ccncc2)no1` it is inactive: 83%. `Cc1cccc(NC(=O)Cn2c(C(F)(F)F)nc3ccccc32)c1C`: the survival is inactive: 62%. The figure for `O=C(NCCc1csc2nc(-c3ccc(F)cc3)nn12)c1ccco1` is inactive: 126%. The figure for `Cc1oc(C(=O)O)cc1CSCc1cc(C(=O)O)oc1C` is inactive: 108%; for `COc1ccc(C)cc1NC(=O)Cn1cc(S(=O)(=O)Cc2ccccc2Cl)c2ccccc21` it is inactive: 92%; for `CCOc1cc2c(cc1OCC)C(c1c(F)cccc1Cl)CC(=O)N2` (stereo not given) it is inactive: 85%. On to `CC1CCN(S(=O)(=O)c2cc(C(=O)Nc3ccc(Br)cc3F)n(C)c2)CC1`, for which the survival was inactive: 77%. Regarding `COC(=O)c1cc(NC(=O)CCc2c(C)nc3cc(-c4ccccc4)nn3c2C)cc(C(=O)OC)c1`, the survival is inactive: 123%.

For the compound `Cc1ccc(-c2cc(C(=O)N3CCN(c4ccccc4)CC3)c3ccccc3n2)cc1C`, the survival was inactive: 132%. The figure for `CCOc1ccccc1CNS(=O)(=O)c1csc(C(N)=O)c1` is inactive: 54%. Consider `CCOC(=O)c1c(S(=O)(=O)N2CCC(C(=O)N3CCN(c4cc(C)ccc4C)CC3)CC2)c(C)n(C)c1C`, for which the survival is inactive: 70%. The figure for `Cc1sc2c(c1C)c(=O)n(-c1ccc(Cl)cc1)c(=O)n2Cc1c(F)cccc1Cl` is inactive: 69%; for `COc1cc(C2C(C(=O)Nc3ccccc3)=C(C)Nc3nc(SCc4ccccc4F)nn32)cc(OC)c1OC` (stereo not given) it is inactive: 144%. Regarding `Cc1ccc(Cn2c(CCCNC(=O)C3CCCCC3)nc3ccccc32)cc1`, the survival is inactive: 119%.

Turning to `O=C(Cn1ncc2c(Cl)cccc21)NCc1cccc(Br)c1`, the survival is inactive: 129%. The same measure for `O=C(NC1CCCCC1)c1ccc(CSc2nc3cccnc3n2Cc2ccccc2F)cc1`: inactive: 74%; for `COc1ccc(C(=O)NCCSc2ccccn2)cc1`: inactive: 95%; for `Cc1ccc(N2CC(NC(=O)C(=O)c3c[nH]c4ccccc34)CC2=O)cc1` (stereo not given): inactive: 99%. As to `CC(C)CCNC(=O)c1ccc2c(c1)N(Cc1ccccc1F)C(=O)c1ccccc1S2=O` (stereo not given), the survival was inactive: 94%. The figure for `COc1ccccc1OCC(=O)NCC1(N(C)C)CCCCC1` is inactive: 87%; for `CCN(CC)c1ncnc(Cl)c1Cc1ccc(OC)cc1` it is inactive: 120%. With `Oc1ccc(NCc2ccc(OCc3ccccc3Cl)cc2)cc1`, the survival was active: -4%. The same measure for `O=C(CSc1nc(=O)n(Cc2cccnc2)c2c1CCC2)Nc1ccc(F)cc1F`: inactive: 83%. For `Cc1ccc(Cc2nc3ccccc3nc2SCC(=O)N2CCCCC2C)cc1` (stereo not given), the survival is inactive: 110%. The same measure for `COC(=O)c1cccc(NC(=O)Nc2cc(C(=O)NCc3cccc(F)c3)ccc2N2CCCC2)c1`: inactive: 77%; for `N#C/C(=C\c1c(Oc2ccc(Br)cc2)nc2ccccn2c1=O)c1nc2ccccc2s1`: inactive: 126%; for `CCCCN1CCc2nc(N3CCN(C)CC3)ncc2C1`: inactive: 81%. For the compound `O=C(NCCc1csc(-c2cccnc2)n1)c1ccc(F)c(F)c1`, the survival is inactive: 133%. The same measure for `CC(=O)N1CCc2cc(Br)cc(S(=O)(=O)N3CCN(c4cccc(C)c4)C(C)C3)c21` (stereo not given): inactive: 77%. The figure for `COc1ccc(N2CCN(C(=O)CS(=O)(=O)c3cccc4nsnc34)CC2)cc1` is inactive: 136%. For `COc1ccc(Cl)cc1NC(=O)c1cc(C)nn1-c1ccccc1`, the survival is inactive: 81%.

With `COc1cccc(N2CCN(S(=O)(=O)c3ccc4c(c3)CCCN4C(C)=O)CC2)c1`, the survival was inactive: 88%.

Regarding `CCOC(=O)c1c(NC(=O)c2cc(=O)c3ccc(C)cc3o2)sc(C)c1C`, the survival was inactive: 111%.
